# The other results are listed elsewhere or left out. The list includes weakly bound sequences.
# Molecular target: T1, MBP-FoxP3dN (UniProt Q99JB6)
# T1 sequence: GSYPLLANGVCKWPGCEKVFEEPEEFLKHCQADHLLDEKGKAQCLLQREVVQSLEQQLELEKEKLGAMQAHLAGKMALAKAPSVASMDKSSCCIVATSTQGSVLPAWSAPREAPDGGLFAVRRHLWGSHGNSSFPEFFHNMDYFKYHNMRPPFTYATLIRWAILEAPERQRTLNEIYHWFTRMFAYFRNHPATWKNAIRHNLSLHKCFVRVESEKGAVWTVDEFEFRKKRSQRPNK
# Assay: PD-seq (MBP pull-down with sequencing)
# Settings: 20 mM Tris-HCl pH 7.5, 100 mM NaCl, 1.5 mM MgCl2, 0.4 uM protein, 0.1 uM dsDNA library, 30 min, room temperature, amylose pull-down; high values mean tight binding; double strand, one strand shown
row,Sequence,binding signal (RPM ratio (pull-down/input))
1,GATGATTGTTCTCCCAGCTGATGAATTGCAATCTTCGAGTAAACAAATTTTCCTAATCTTTCTGTTCAAGCGCCATCTAC,1.72
2,GATGATTGTTCTCCCAGCTGATGAATTTCCGTTCTCGAGTAAACAAATTTTCCTAATCTTTCTGTTCAAGCGCCATCTAC,0.504
3,GATGATTGTTCTCCCAGCTGATGAATTCGACTAGTCGAGTAAACAAATTTTCCTAATCTTTCTGTTCAAGCGCCATCTAC,0.306
4,GATGATTGTTCTCCCAGCTGATGAATTCTGGCGTTCGAGTAAACAAATTTTCCTAATCTTTCTGTTCAAGCGCCATCTAC,1.13
5,GATGATTGTTCTCCCAGCTGATGAATTCTGGAATTCGAGTAAACAAATTTTCCTAATCTTTCTGTTCAAGCGCCATCTAC,0.579
6,GATGATTGTTCTCCCAGCTGATGAATTCTCGAAATCGAGTAAACAAATTTTCCTAATCTTTCTGTTCAAGCGCCATCTAC,0.241
7,GATGATTGTTCTCCCAGCTGATGAATTTAATTCTTCGAGTAAACAAATTTTCCTAATCTTTCTGTTCAAGCGCCATCTAC,0.786
8,GATGATTGTTCTCCCAGCTGATGAATTGAAACTATCGAGTAAACAAATTTTCCTAATCTTTCTGTTCAAGCGCCATCTAC,0.434
9,GATGATTGTTCTCCCAGCTGATGAATTAGCTTCTTCGAGTAAACAAATTTTCCTAATCTTTCTGTTCAAGCGCCATCTAC,0.901
10,GATGATTGTTCTCCCAGCTGATGAATTGGCAGTTTCGAGTAAACAAATTTTCCTAATCTTTCTGTTCAAGCGCCATCTAC,0.452
11,GATGATTGTTCTCCCAGCTGATGAATTATGACGGTCGAGTAAACAAATTTTCCTAATCTTTCTGTTCAAGCGCCATCTAC,0.372
12,GATGATTGTTCTCCCAGCTGATGAATTTTTTTTCTCGAGTAAACAAATTTTCCTAATCTTTCTGTTCAAGCGCCATCTAC,0.267
13,GATGATTGTTCTCCCAGCTGATGAATTGTGGTCTTCGAGTAAACAAATTTTCCTAATCTTTCTGTTCAAGCGCCATCTAC,1.15
14,GATGATTGTTCTCCCAGCTGATGAATTGATCTTGTCGAGTAAACAAATTTTCCTAATCTTTCTGTTCAAGCGCCATCTAC,0.293
15,GATGATTGTTCTCCCAGCTGATGAATTTTAAACCTCGAGTAAACAAATTTTCCTAATCTTTCTGTTCAAGCGCCATCTAC,0.227
16,GATGATTGTTCTCCCAGCTGATGAATTCGAGGCGTCGAGTAAACAAATTTTCCTAATCTTTCTGTTCAAGCGCCATCTAC,0.633
17,GATGATTGTTCTCCCAGCTGATGAATTGCCGTCATCGAGTAAACAAATTTTCCTAATCTTTCTGTTCAAGCGCCATCTAC,1.1
18,GATGATTGTTCTCCCAGCTGATGAATTAAAGCTGTCGAGTAAACAAATTTTCCTAATCTTTCTGTTCAAGCGCCATCTAC,0.47
19,GATGATTGTTCTCCCAGCTGATGAATTCAAAATTTCGAGTAAACAAATTTTCCTAATCTTTCTGTTCAAGCGCCATCTAC,0.239
20,GATGATTGTTCTCCCAGCTGATGAATTATCTTCTTCGAGTAAACAAATTTTCCTAATCTTTCTGTTCAAGCGCCATCTAC,0.337
21,GATGATTGTTCTCCCAGCTGATGAATTGCACGGATCGAGTAAACAAATTTTCCTAATCTTTCTGTTCAAGCGCCATCTAC,0.516

row,Sequence,binding signal (RPM ratio (pull-down/input))
1,GATGATTGTTCTCCCAGCTGATGAATTATAATGATCGAGTAAACAAATTTTCCTAATCTTTCTGTTCAAGCGCCATCTAC,0.639
2,GATGATTGTTCTCCCAGCTGATGAATTCTTTTGTTCGAGTAAACAAATTTTCCTAATCTTTCTGTTCAAGCGCCATCTAC,0.487
3,GATGATTGTTCTCCCAGCTGATGAATTCATGACATCGAGTAAACAAATTTTCCTAATCTTTCTGTTCAAGCGCCATCTAC,0.595
4,GATGATTGTTCTCCCAGCTGATGAATTCTTTGTGTCGAGTAAACAAATTTTCCTAATCTTTCTGTTCAAGCGCCATCTAC,0.573
5,GATGATTGTTCTCCCAGCTGATGAATTACTCGGTTCGAGTAAACAAATTTTCCTAATCTTTCTGTTCAAGCGCCATCTAC,0.264
6,GATGATTGTTCTCCCAGCTGATGAATTATTTCCCTCGAGTAAACAAATTTTCCTAATCTTTCTGTTCAAGCGCCATCTAC,0.421
7,GATGATTGTTCTCCCAGCTGATGAATTCATATGATCGAGTAAACAAATTTTCCTAATCTTTCTGTTCAAGCGCCATCTAC,0.401
8,GATGATTGTTCTCCCAGCTGATGAATTCGGCATGTCGAGTAAACAAATTTTCCTAATCTTTCTGTTCAAGCGCCATCTAC,5.04
9,GATGATTGTTCTCCCAGCTGATGAATTGCCTGAATCGAGTAAACAAATTTTCCTAATCTTTCTGTTCAAGCGCCATCTAC,0.376
10,GATGATTGTTCTCCCAGCTGATGAATTTATGAATTCGAGTAAACAAATTTTCCTAATCTTTCTGTTCAAGCGCCATCTAC,0.946
11,GATGATTGTTCTCCCAGCTGATGAATTTCACTCGTCGAGTAAACAAATTTTCCTAATCTTTCTGTTCAAGCGCCATCTAC,0.462
12,GATGATTGTTCTCCCAGCTGATGAATTCACGAGATCGAGTAAACAAATTTTCCTAATCTTTCTGTTCAAGCGCCATCTAC,0.252
13,GATGATTGTTCTCCCAGCTGATGAATTCCTTTGGTCGAGTAAACAAATTTTCCTAATCTTTCTGTTCAAGCGCCATCTAC,0.395
14,GATGATTGTTCTCCCAGCTGATGAATTATTTCAGTCGAGTAAACAAATTTTCCTAATCTTTCTGTTCAAGCGCCATCTAC,0.258
15,GATGATTGTTCTCCCAGCTGATGAATTTGCATTGTCGAGTAAACAAATTTTCCTAATCTTTCTGTTCAAGCGCCATCTAC,5.29
16,GATGATTGTTCTCCCAGCTGATGAATTGCCCCAGTCGAGTAAACAAATTTTCCTAATCTTTCTGTTCAAGCGCCATCTAC,0.347
17,GATGATTGTTCTCCCAGCTGATGAATTGTGGCGCTCGAGTAAACAAATTTTCCTAATCTTTCTGTTCAAGCGCCATCTAC,2.07
18,GATGATTGTTCTCCCAGCTGATGAATTACGCTCATCGAGTAAACAAATTTTCCTAATCTTTCTGTTCAAGCGCCATCTAC,0.758
19,GATGATTGTTCTCCCAGCTGATGAATTTATGCCTTCGAGTAAACAAATTTTCCTAATCTTTCTGTTCAAGCGCCATCTAC,3.43
20,GATGATTGTTCTCCCAGCTGATGAATTAGGGAGTTCGAGTAAACAAATTTTCCTAATCTTTCTGTTCAAGCGCCATCTAC,0.373
21,GATGATTGTTCTCCCAGCTGATGAATTTTGTGTTTCGAGTAAACAAATTTTCCTAATCTTTCTGTTCAAGCGCCATCTAC,5.3

row,Sequence,binding signal (RPM ratio (pull-down/input))
1,GATGATTGTTCTCCCAGCTGATGAATTTCCCCCTTCGAGTAAACAAATTTTCCTAATCTTTCTGTTCAAGCGCCATCTAC,0.194
2,GATGATTGTTCTCCCAGCTGATGAATTAAGAGCTTCGAGTAAACAAATTTTCCTAATCTTTCTGTTCAAGCGCCATCTAC,0.278
3,GATGATTGTTCTCCCAGCTGATGAATTACCTCCCTCGAGTAAACAAATTTTCCTAATCTTTCTGTTCAAGCGCCATCTAC,0.279
4,GATGATTGTTCTCCCAGCTGATGAATTCATTAGTTCGAGTAAACAAATTTTCCTAATCTTTCTGTTCAAGCGCCATCTAC,1.59
5,GATGATTGTTCTCCCAGCTGATGAATTCCTGTGTTCGAGTAAACAAATTTTCCTAATCTTTCTGTTCAAGCGCCATCTAC,0.599
6,GATGATTGTTCTCCCAGCTGATGAATTTGTGTCATCGAGTAAACAAATTTTCCTAATCTTTCTGTTCAAGCGCCATCTAC,4.37
7,GATGATTGTTCTCCCAGCTGATGAATTACCGTCATCGAGTAAACAAATTTTCCTAATCTTTCTGTTCAAGCGCCATCTAC,0.671
8,GATGATTGTTCTCCCAGCTGATGAATTATAAGGATCGAGTAAACAAATTTTCCTAATCTTTCTGTTCAAGCGCCATCTAC,0.263
9,GATGATTGTTCTCCCAGCTGATGAATTCACTCAGTCGAGTAAACAAATTTTCCTAATCTTTCTGTTCAAGCGCCATCTAC,0.284
10,GATGATTGTTCTCCCAGCTGATGAATTATTGAGTTCGAGTAAACAAATTTTCCTAATCTTTCTGTTCAAGCGCCATCTAC,0.631
11,GATGATTGTTCTCCCAGCTGATGAATTAACAGTGTCGAGTAAACAAATTTTCCTAATCTTTCTGTTCAAGCGCCATCTAC,0.495
12,GATGATTGTTCTCCCAGCTGATGAATTCAAGAATTCGAGTAAACAAATTTTCCTAATCTTTCTGTTCAAGCGCCATCTAC,0.436
13,GATGATTGTTCTCCCAGCTGATGAATTCGGAAGATCGAGTAAACAAATTTTCCTAATCTTTCTGTTCAAGCGCCATCTAC,0.201
14,GATGATTGTTCTCCCAGCTGATGAATTGAATAGCTCGAGTAAACAAATTTTCCTAATCTTTCTGTTCAAGCGCCATCTAC,0.346
15,GATGATTGTTCTCCCAGCTGATGAATTTCCATTTTCGAGTAAACAAATTTTCCTAATCTTTCTGTTCAAGCGCCATCTAC,0.295
16,GATGATTGTTCTCCCAGCTGATGAATTGATAAAATCGAGTAAACAAATTTTCCTAATCTTTCTGTTCAAGCGCCATCTAC,0.246
17,GATGATTGTTCTCCCAGCTGATGAATTGGATGCGTCGAGTAAACAAATTTTCCTAATCTTTCTGTTCAAGCGCCATCTAC,1.9
18,GATGATTGTTCTCCCAGCTGATGAATTATAGTTGTCGAGTAAACAAATTTTCCTAATCTTTCTGTTCAAGCGCCATCTAC,1.61
19,GATGATTGTTCTCCCAGCTGATGAATTAAATACCTCGAGTAAACAAATTTTCCTAATCTTTCTGTTCAAGCGCCATCTAC,0.433
20,GATGATTGTTCTCCCAGCTGATGAATTGGAACATTCGAGTAAACAAATTTTCCTAATCTTTCTGTTCAAGCGCCATCTAC,0.484
21,GATGATTGTTCTCCCAGCTGATGAATTGGAGCTATCGAGTAAACAAATTTTCCTAATCTTTCTGTTCAAGCGCCATCTAC,0.516
